# Data reported in the supplement of paper PMC8728848.
# Some of the results follow.
# B1: AMA (Arum maculatun) (protein)
# chain: MAKLLLLLLLPAIVGLAVPRSAAAVGSNYMLSGETLNTDGRLTNGELTLIMQVDCNLVLYHGGWQSNTANNGRDCKLTLTDFGELVIKSGTGSTVWSSGSKQSMKGNYAAVVHPEGRLVIYGPSVFKINPSGAGLNGLPLRNIPLTNNMLFSGQVLYGDGTLSARNHKLVMQGDCNMVLYGGKYGWQSNTHGNGKYCFAMLTHKGELVIRDDDFKSVWSSKSSSKQGDYVFILQDDSLAIIYGPAVFSTGSKKMISMVTN
# How the values were obtained:
# Experiment in all cases: glycan array binding signal (z-score within array); higher = stronger binding
# Conditions in all cases: glycan notation: IUPAC condensed, linker removed
# [1] = target: Fuc(a1-2)Gal(b1-4)GlcNAc(b1-3)Gal(b1-4)GlcNAc(b1-2)Man(a1-3)[Fuc(a1-2)Gal(b1-4)GlcNAc(b1-3)Gal(b1-4)GlcNAc(b1-2)Man(a1-6)]Man(b1-4)GlcNAc(b1-4)GlcNAc
# Method in brief: (§1)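 Glycan array binding is given as a within-array Z-score, which can be read as non-binding when negative. The arrays, 3228 of them, came from the Consortium for Functional Glycomics database and were retained only where the protein sequence was available. Z-scores were averaged across arrays of the same protein sequence at different concentrations or buffers and across linkers.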
# [2] = target: Fuc(a1-2)Gal(b1-4)GlcNAc(b1-3)Gal(b1-4)GlcNAc(b1-3)Gal(b1-4)GlcNAc
# Method in brief: as §1
# [3] = target: Fuc(a1-2)Gal(b1-4)GlcNAc(b1-3)GalNAc
# Method in brief: as §1
# [4] = target: Fuc(a1-2)Gal(b1-4)GlcNAc(b1-3)[Fuc(a1-2)Gal(b1-4)GlcNAc(b1-6)]GalNAc
# Method in brief: as §1
# [5] = target: Fuc(a1-2)Gal(b1-4)GlcNAc(b1-3)[Fuc(a1-3)[Gal(b1-4)]GlcNAc(b1-6)]Gal(b1-4)Glc
# Method in brief: as §1
# [6] = target: Fuc(a1-2)Gal(b1-4)GlcNAc(b1-6)GalNAc
# Method in brief: as §1
# [7] = target: Fuc(a1-2)Gal(b1-4)GlcNAc6S
# Method in brief: as §1
# [8] = target: Fuc(a1-2)Gal(b1-4)[Fuc(a1-3)]GlcNAc
# Method in brief: as §1
# [9] = target: Fuc(a1-2)Gal(b1-4)[Fuc(a1-3)]GlcNAc(b1-2)Man(a1-3)[Fuc(a1-2)Gal(b1-4)[Fuc(a1-3)]GlcNAc(b1-2)Man(a1-6)]Man(b1-4)GlcNAc(b1-4)[Fuc(a1-6)]GlcNAc
# Method in brief: as §1
# [10] = target: Fuc(a1-2)Gal(b1-4)[Fuc(a1-3)]GlcNAc(b1-2)[Fuc(a1-2)Gal(b1-4)[Fuc(a1-3)]GlcNAc(b1-4)]Man(a1-3)[Fuc(a1-2)Gal(b1-4)[Fuc(a1-3)]GlcNAc(b1-2)Man(a1-6)]Man(b1-4)GlcNAc(b1-4)GlcNAc
# Method in brief: as §1
# [11] = target: Fuc(a1-2)Gal(b1-4)[Fuc(a1-3)]GlcNAc(b1-3)Gal(b1-4)[Fuc(a1-3)]GlcNAc
# Method in brief: as §1
# [12] = target: Fuc(a1-2)Gal(b1-4)[Fuc(a1-3)]GlcNAc(b1-3)Gal(b1-4)[Fuc(a1-3)]GlcNAc(b1-3)Gal(b1-4)[Fuc(a1-3)]GlcNAc
# Method in brief: as §1
# [13] = target: Fuc(a1-2)Gal(b1-4)[Fuc(a1-3)]GlcNAc(b1-3)GalNAc
# Method in brief: as §1
# [14] = target: Fuc(a1-2)Gal(b1-4)[Fuc(a1-3)]GlcNAc(b1-3)[Neu5Ac(a2-6)Gal(b1-4)GlcNAc(b1-6)]Gal(b1-4)Glc
# Method in brief: as §1
# [15] = target: Fuc(a1-2)Gal3S(b1-4)GlcNAc
# Method in brief: as §1
# [16] = target: Fuc(a1-2)Gal6S(b1-3)GlcNAc
# Method in brief: as §1
# [17] = target: Fuc(a1-2)Gal6S(b1-3)GlcNAc6S
# Method in brief: as §1
# Fuc(a1-2)Gal6S(b1-4)Glc = target: Fuc(a1-2)Gal6S(b1-4)Glc
# Method in brief: as §1
# [18] = target: Fuc(a1-2)Gal6S(b1-4)Glc6S
# Method in brief: as §1
# Fuc(a1-2)GlcNAc = target: Fuc(a1-2)GlcNAc
# Method in brief: as §1
# Fuc(a1-2)[Gal(a1-3)]Gal = target: Fuc(a1-2)[Gal(a1-3)]Gal
# Method in brief: as §1
# [19] = target: Fuc(a1-2)[Gal(a1-3)]Gal(b1-3)GalNAc
# Method in brief: as §1
# [20] = target: Fuc(a1-2)[Gal(a1-3)]Gal(b1-3)GalNAc(b1-3)Gal(a1-4)Gal(b1-4)Glc
# Method in brief: as §1
# [21] = target: Fuc(a1-2)[Gal(a1-3)]Gal(b1-3)GlcNAc
# Method in brief: as §1
# [22] = target: Fuc(a1-2)[Gal(a1-3)]Gal(b1-3)GlcNAc(b1-2)Man(a1-3)[Fuc(a1-2)[Gal(a1-3)]Gal(b1-3)GlcNAc(b1-2)Man(a1-6)]Man(b1-4)GlcNAc(b1-4)GlcNAc
# Method in brief: as §1
# [23] = target: Fuc(a1-2)[Gal(a1-3)]Gal(b1-3)GlcNAc(b1-2)Man(a1-3)[Fuc(a1-2)[Gal(a1-3)]Gal(b1-3)GlcNAc(b1-2)Man(a1-6)]Man(b1-4)GlcNAc(b1-4)[Fuc(a1-6)]GlcNAc
# Method in brief: as §1
# [24] = target: Fuc(a1-2)[Gal(a1-3)]Gal(b1-3)GlcNAc(b1-3)GalNAc
# Method in brief: as §1
# [25] = target: Fuc(a1-2)[Gal(a1-3)]Gal(b1-3)GlcNAc(b1-6)GalNAc
# Method in brief: as §1
# [26] = target: Fuc(a1-2)[Gal(a1-3)]Gal(b1-4)Glc
# Method in brief: as §1
# [27] = target: Fuc(a1-2)[Gal(a1-3)]Gal(b1-4)GlcNAc
# Method in brief: as §1
binder,measurement,setting,value
B1,glycan array binding signal (z-score),[1],0.536
same,glycan array binding signal (z-score),[2],-0.154
same,glycan array binding signal (z-score),[3],-0.222
same,glycan array binding signal (z-score),[4],-0.212
same,glycan array binding signal (z-score),[5],-0.213
same,glycan array binding signal (z-score),[6],-0.209
same,glycan array binding signal (z-score),[7],-0.217
same,glycan array binding signal (z-score),[8],-0.22
same,glycan array binding signal (z-score),[9],1.12
same,glycan array binding signal (z-score),[10],-0.176
same,glycan array binding signal (z-score),[11],-0.211
same,glycan array binding signal (z-score),[12],-0.209
same,glycan array binding signal (z-score),[13],-0.197
same,glycan array binding signal (z-score),[14],-0.206
same,glycan array binding signal (z-score),[15],-0.211
same,glycan array binding signal (z-score),[16],-0.22
same,glycan array binding signal (z-score),[17],-0.193
same,glycan array binding signal (z-score),Fuc(a1-2)Gal6S(b1-4)Glc,-0.208
same,glycan array binding signal (z-score),[18],-0.208
same,glycan array binding signal (z-score),Fuc(a1-2)GlcNAc,-0.234
same,glycan array binding signal (z-score),Fuc(a1-2)[Gal(a1-3)]Gal,-0.206
same,glycan array binding signal (z-score),[19],-0.211
same,glycan array binding signal (z-score),[20],-0.22
same,glycan array binding signal (z-score),[21],-0.191
same,glycan array binding signal (z-score),[22],0.496
same,glycan array binding signal (z-score),[23],0.7
same,glycan array binding signal (z-score),[24],-0.22
same,glycan array binding signal (z-score),[25],-0.221
same,glycan array binding signal (z-score),[26],-0.205
same,glycan array binding signal (z-score),[27],-0.222
